This is one part of the list.
What follows are sequences tested on PfSIP2 AP2 domain 1 (GST-tagged) (assay: gcPBM binding intensity (ln(normalized median fluorescence intensity)); higher = stronger DNA binding).
Procedure, shortened: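 For binding intensity, the highest Masliner-normalised natural-log median intensity across replicate spots of either probe orientation was taken. Protein bound to the array was stained with Alexa488 anti-GST antibody and scanned at 488 nm. The protein, GST-tagged P. falciparum DNA-binding domains from E. coli at about 25 μg on average, had been applied for 1 h to an Agilent 4 × 180k array of primer-extended double-stranded 36-bp intergenic genomic probes and negative controls.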

Sequence	gcPBM binding intensity (ln)
CCATTTACAAAAAGGAGTACACAAATATATGTTTAA [XGTACX_site649]	6.99
TACTTACAGATAATAACACACAAGAAAAAAATAAAA [CACACA_site4716]	6.94
AAAAAACAGACATACACACACACACGGATATTTATA [CACACA_site7570]	6.96
TACAAATATGGACACACACACATATTTATATTTATA [CACACA_site6420]	7.12
ATATAAATGTATATGACACACATATATATATATATA [CACACA_site889]	9.42
AATATTTATGGGTGCACACAAACATACAGATATATA [CACACA_site5810]	12.1
TATATATATATCAAGTGTACTTGTGTTTGTAATATT [XGTACX_site8854]	8.95
TTAAAATAGATATTAGTGCAAAAAAAAAAAAATAAA	8.25
TTTTGATATAAATATTAGATTAATAAATAAAAAAAT [CACACA_negctrl_site1635]	7.02
ATAATATCATAATATTGTACATATTTTATTTTAAAT [XGTACX_site1115]	6.94
TTTTTTGTTTGAATGGTGCATTTTGTAATTATATTT	10.6
CAACTAACATATATTCAACACACATATACCTTCAAC [CACACA_site8988]	7.08
TAACATATTATATATACATGCATACGTGAACTAATC [TGCATGCA_site888]	7.01
ATTGTATATGTATATGCACACAATATATGTACTTAT [CACACA_site2611]	7.99
GATATATTATTTGAATGTACATATTATATTTATATT [XGTACX_site907]	7.01
GTTAGAATTGTTAGGTGGTCAAAAAGGAGAAAAAAA [XGTACX_site2086]	7.33
TTTTTTTAGTTAATTAAACACACAAAAAAAAAAATA [CACACA_site9301]	6.88
TTTTTAATTAACTTTTTATAAATAAATAAAAATATA [GTGCAC_negctrl_site334]	6.98
TTCACATACAGAAACACACACATATTTATAAATTAA [CACACA_site7699]	7.17
AAAAGAAAATTAAATTAACACACATAAATATATATA [CACACA_site8482]	7.27
ATTATTTAATTTTATTAAAAAAAAACAAATTAACAG [GTGCAC_negctrl_site152]	7.29
TTATTTTATTTTGAAGCATGCTTTTTGCTGTGATAA [TGCATGCA_site278]	6.76

Sequence	gcPBM binding intensity (ln)
AAATAATATTTATACACACACACATATTTATATACA [CACACA_site6403]	7.02
TTATGCGTTTGCAAAAGTACATATCTATTATTTTTA [XGTACX_site7609]	6.93
GGTCTTATTTTTAGTAGTACAAATATAATATACATA [XGTACX_site6483]	7.45
TTTTTTTTTTTTTGTTGTACCCATCATATATACATA [XGTACX_site4342]	7.11
TATAAAAATATTTAATGTACGAATCTGTGATATATC [XGTACX_site7881]	6.88
CTAAACAGAATTATCACACATATAAATATAAACATA [CACACA_site4560]	6.86
ATATATTACATATGTGTGCACGTTCCAAAATTTTTA	9.53
TTTTCATGTTGTAAAGCATGCTTTACTCATAAAAAA [TGCATGCA_site917]	6.86
ATTATTAAAAGAAGAAGTACTTATATATTAATATTA [XGTACX_site5227]	6.94
AAAATACACGCATACACACACACACGCGCACATATA [CACACA_site6448]	7.29
ATGTCTATATATTAAGGTACACATATATGCTATTCA [XGTACX_site6008]	7.03
ATATTAATTTTTATTACACACTCTCAATTTTTATTT [CACACA_site58]	7.08
AAAATATACATAAACACACACAAAACGTTTAAGAAA [CACACA_site1071]	7.1
GTTTAACTGTTTTATACACACAATGTATCCAATAAA [CACACA_site5612]	7
TTTTAGTTAATTCATGCATGTAAAGTTTTATTTATA [TGCATGCA_site252]	6.83
AAAAAAAAAAAAAAAGTACACACTTTTGCGTACATG [CACACA_site3097]	7.5
TTTATGCACGCGTGCACACACATATGAAAAAAGGTA [CACACA_site3315]	10.4
TATGTTTAAATATATTGTACGCACGTATGTTTTTAA [XGTACX_site1108]	7.01
AATACCTTTTAATAATGTACAAACAAAAATTAGAGA [XGTACX_site6850]	7.11
TATATATTAAAAATAGTGCAAAATAATATATATATA [GTGCAC_site9716]	8.84
AAGGGGAGAAAAATAAACGAAATATATACATACATA [XGTACX_negctrl_site88]	7.08
ATATATATATATATATGTACATATTCATCTTATTCT [XGTACX_site1537]	9.35
